Assay results: PubChem BioAssay AID686970 (National Center for Advancing Translational Sciences (NCATS), 2013)
In all, about 360,000 compounds went through this assay and about 6,000 (1.7%) were called active. The shares of active, inactive and inconclusive entries below differ from those in the screen. Calls come from the whole dose curve; as a rule, active = well fitted cell-killing curve with a large enough effect; inconclusive = small, poorly fitted or top-dose-only effect, or effect the other way; inactive = flat fitted curve, though single readings scatter. No potency is given beside an inconclusive call; the fits are too rough.

Assay: qHTS for induction of synthetic lethality in tumor cells producing 2HG: qHTS for the HT-1080-NT fibrosarcoma cell line;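 note: NT is the 2HG producing partner of a matched IDH1 knockdown line; nearly all actives have a fitted effect of over 55% in size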;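 for activity, negative = less viability: 0% = DMSO-treated cells and -100% = media-only wells without cells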
Settings: HT-1080-NT fibrosarcoma viability, CellTiter-Glo ATP luminescence, 48 h; activity, negative = less viability: at 46.1 µM (top of the series) unless noted
Method in brief: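 Viability of the 2HG-overproducing fibrosarcoma line after 48 hours of compound exposure at 37 degrees C was determined by luminescence with CellTiter-Glo, and concentration-effect curves were then fitted and categorized.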
Potency is the fitted concentration of half-maximal effect; tags give direction and shape of the fitted curve.

Row | Structure (SMILES) | Potency | activity, negative = less viability
1 | O=C(/C=C/c1ccco1)NC(=S)Nc1cccc(-c2nc3ccccc3o2)c1 | active: 5.17 µM | –
2 | CCCCC(=O)N=c1sc2cc([N+](=O)[O-])ccc2n1C | – | inconclusive: 34%
3 | COc1cc(CNC2CCCCCCC2)c(Br)cc1OCCO | inactive | –
4 | O=C(c1cn[nH]c1)N1CCc2c([nH]c3ccccc23)C1c1c(F)cccc1Cl (stereo not given) | inconclusive [cytotoxic, single point] | –
5 | CCCCN(C(=O)CSc1ncnc2sccc12)c1c(N)n(Cc2ccccc2)c(=O)[nH]c1=O | inactive | –
6 | Cc1ccc2c(c1)c1c(n2CC(O)Cn2c(C)nc3ccccc32)CCCC1 (stereo not given) | inconclusive [cytotoxic, single point] | –
7 | O=C(O)c1cccc(Nc2nc(Nc3ccccc3)nc(N3CCCC3)n2)c1 | – | inconclusive: -15.1% [cytotoxic]
8 | CC(=O)Nc1ccc(-c2ccnc3c2CC(C(=O)Nc2ccc4c(c2)OCO4)O3)cc1 (stereo not given) | inconclusive [cytotoxic, full curve] | –
9 | COc1ccc(NC(=O)C2(C)Cc3c(-c4cccc(NC(C)=O)c4)ccnc3O2)cn1 (stereo not given) | – | inconclusive: -31.3%
10 | C=CC[n+]1c(/C=C/c2ccc(OC(C)=O)c(OC)c2)ccc2ccccc21 | inconclusive [cytotoxic, single point] | –
11 | COc1ccc(C(=O)Nc2ccc(NC(=O)c3cccc(OC)c3)cn2)cc1 | active: 20.6 µM | –
12 | CC(O)(c1cccnc1)c1nc(-c2ccc(F)c(Cl)c2)cs1 (stereo not given) | inconclusive [cytotoxic, single point] | –
13 | CSc1ccc(NC(=O)C2(C)CCN2C(=O)C2(c3ccccc3)CC2)cc1 (stereo not given) | – | inconclusive: 15.4%
14 | CC(=O)Nc1cc(-c2cccc(NS(C)(=O)=O)c2)cn2c(-c3cccc(C(C)=O)c3)cnc12 | inconclusive [cytotoxic, single point] | –
15 | O=C(c1ccco1)N1CCN(c2c(-c3ccccc3)c3cc(Cl)ccc3[nH]c2=O)CC1 | inconclusive [cytotoxic, single point] | –
16 | COc1ccc(C2CC(C)(c3ccc(OC)cc3)Nc3ccccc3N2)cc1 (stereo not given) | inconclusive [cytotoxic, single point] | –
17 | CCOC(=O)N1CCN(C(=O)c2cccc(OC)c2OC)CC1 | – | inconclusive: 30.9%
18 | O=C(CCN1CCN(Cc2ccccc2)CC1)Nc1cccc(Br)c1 | inactive | –
19 | CCC(C(=O)NC1CCCC1)n1c2ccccc2c2nc(=O)cc(C)n21 (stereo not given) | inactive | –
20 | Cc1nc2ccc3nc(NC(=O)c4ccco4)sc3c2s1 | – | inconclusive: 15.7%
21 | Cc1ccc2nc(NC(=O)C3CCN(S(=O)(=O)c4cccs4)CC3)sc2c1 | inconclusive [cytotoxic, partial curve] | –
22 | Cc1cc(C)cc(NC(=O)COc2coc(CN3CCc4ccccc43)cc2=O)c1 | inconclusive [cytotoxic, single point] | –
23 | c1ccc2cc(OCc3nc4ccccc4[nH]3)ccc2c1 | inconclusive [cytotoxic, single point] | –

Row | Structure (SMILES) | Potency | activity, negative = less viability
24 | COc1ccc(-c2oc3ncnc(NCCCN4CCOCC4)c3c2-c2ccc(OC)cc2)cc1 | inconclusive [cytotoxic, single point] | –
25 | Cc1c(CCOC(=O)c2cc([N+](=O)[O-])cc([N+](=O)[O-])c2)sc[n+]1CCCCS(=O)(=O)[O-] | inactive | –
26 | O=C(NN1C(=O)c2ccccc2NC1c1ccc([N+](=O)[O-])o1)c1ccc([N+](=O)[O-])cc1 (stereo not given) | inconclusive [cytotoxic, partial curve, poor fit] | –
27 | Cc1cc(Cl)c(S(=O)(=O)N2CCN(c3ccc(F)cc3)CC2)cc1OCC(=O)NC1CCCCC1 | – | inconclusive: -26.8% [cytotoxic]
28 | CC1(C)CCSC(/C=C/c2ccccc2)=N1 | active: 23.1 µM | –
29 | Cc1c(C(=O)O)cccc1-n1c(C)cc(/C=C(/C#N)C(=O)NCc2ccccc2)c1C | inactive | –
30 | CN=c1scc(-c2cccs2)n1/N=C/c1ccccc1O | inconclusive [cytotoxic, single point] | –
31 | CC(NC(=O)C1CCN(c2nnc(-n3cccc3)s2)CC1)C12CC3CC(CC(C3)C1)C2 (stereo not given) | inactive | –
32 | CCc1ccc(OC2(C)CCN(Cc3ccccc3OC(F)F)C2)cc1 (stereo not given) | inconclusive [cytotoxic, single point] | –
33 | O=C(N/N=C/c1c[nH]c2ccccc12)c1cc(-c2ccc3ccccc3c2)n[nH]1 | active: 7.31 µM | –
34 | CC(=O)NC(CC(=O)OCC(=O)N1CCN(S(=O)(=O)c2ccc(Cl)cc2)CC1)c1ccccc1 (stereo not given) | inactive | –
35 | COc1ccc(C2=NN(C(=O)CSc3nccn3C)C(c3ccco3)C2)cc1 (stereo not given) | inactive | –
36 | CCOc1cc([N+](=O)[O-])cc(/C=N/NC(=O)c2c(-c3ccccc3)noc2C)c1O | inconclusive [cytotoxic, single point] | –
37 | Cc1cccc(C)c1NC(=O)CSCC(=O)c1ccc(O)c(O)c1 | inconclusive [cytotoxic, single point] | –
38 | O=C(Nc1nc2ccccc2s1)c1ccc2sc([C@H]3C[C@H](O)[C@@H](CO)O3)nc2c1 | inconclusive [cytotoxic, single point] | –
39 | CC1(C)S[C@@H]2[C@H](NC(=O)[C@H](N)c3ccccc3)C(=O)N2[C@H]1C(=O)OC1OC(=O)c2ccccc21 (stereo not given in full) | inactive | –
40 | COc1ccc(/C=C2\SC(=S)N(CC(=O)NC3CCS(=O)(=O)C3)C2=O)cc1 (stereo not given) | inactive | –
41 | COc1ccccc1NC(=S)N(Cc1ccco1)Cc1cc2cc(C)c(C)cc2[nH]c1=O | inconclusive [cytotoxic, partial curve] | –
42 | NNC(=O)c1cc(Br)cs1 | inactive | –
43 | CC(=NNC(=O)c1ccncc1)c1ccccc1O | – | inconclusive: -25.2% [cytotoxic]
44 | Cc1ccc(N=C2SC(C(=O)Nc3ccc(OC(F)(F)F)cc3)C(N)=C2C(=O)Nc2c(C)cc(C)cc2C)cc1 (stereo not given) | active: 14.6 µM | –
45 | O=C(CSc1cccc[n+]1[O-])c1ccc(Cl)s1 | inconclusive [cytotoxic, single point] | –
